In the supplement of paper PMC11417369:
± gives the standard deviation of the averaged measurements. This is one part of the list.

tested on: PfAP2-LT AP2 domain (GST-tagged); test: gcPBM binding intensity (ln(normalized median fluorescence intensity)); higher = stronger DNA binding
In short: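 For binding intensity, the highest Masliner-normalised natural-log median intensity across replicate spots of either probe orientation was taken. Protein bound to the array was stained with Alexa488 anti-GST antibody and scanned at 488 nm. The protein, GST-tagged P. falciparum DNA-binding domains from E. coli at about 25 μg on average, had been applied for 1 h to an Agilent 4 × 180k array of primer-extended double-stranded 36-bp intergenic genomic probes and negative controls.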

Sequence | gcPBM binding intensity (ln)
TTATTACATAACAATATACACACTATTGATTAAAGA [CACACA_site2933] | 8.68 ± 0.39
TTATTAAATAAAATCATGCACACAATATATATTTTA [CACACA_site2496] | 8.73 ± 0.48
GTTATTAAACAGAAAAGTACATATGTATATTAAAAT [XGTACX_site3724] | 9.07 ± 0.43
AAGAAAAAAGTTATTAGTACACATTATAATAAAAAG [XGTACX_site3527] | 8.76 ± 0.64
AATACTAAAAAGTGTACACATACATAAAAAATTGCA [CACACA_site5620] | 9.08 ± 0.51
TATTGATTTATAAACACACACTCGAAGATGTTTAAC [CACACA_site4760] | 8.86 ± 0.42
TAATTTTCTTTTTATCGTTTTTTTTTTTTTTTTTTT [XGTACX_negctrl_site432] | 8.38 ± 0.6
TATATATATGTAAATCGTACAAATTATATATATCAT [XGTACX_site2821] | 8.79 ± 0.36
TATATCTCATAGTATACACACACACCCACCCACATA [CACACA_site8513] | 9.9 ± 0.23
CATTATGTTGTAAATACACACATACATATACATACA [CACACA_site8143] | 9.06 ± 0.3
AGTGGAATGTATGATTTTCATTCCTTAAAATTTTAA [GTGCAC_negctrl_site521] | 8.45 ± 0.35
ACAAAAAAAATAAGCACACATATATATATATATATA [CACACA_site816] | 10.1 ± 0.38
ATATATATATATAAGCGTACGCGTAGTTAAATTAAT [XGTACX_site7693] | 9.23 ± 0.38
TATGTTATATTGGACACACACAATAAACATTATGTA [CACACA_site1657] | 9.04 ± 0.38
TAAAATATTTCAAAGGTGCAATGATAATTTAAGACG [GTGCAC_site9609] | 8.66 ± 0.42
AAATGAAAAATAAGGAAAAAAAAAAAAAAAAAAAAA [CACACA_negctrl_site1715] | 8.33 ± 0.37
ATATTGACAGGAAAAATTTTCTTTGAATCTTTAAAA [CACACA_negctrl_site1191] | 8.13 ± 0.42
TATTCAATACTTAATGCACACAATAAAAAAAATATG [CACACA_site2467] | 8.88 ± 0.46
ACGATAACATTTTTACGTACATATATTTTCACGGAG [XGTACX_site8764] | 8.79 ± 0.48
TACATGATAAGATGTAGTACATAAAAGAATAAATTA [XGTACX_site787] | 8.94 ± 0.55
TTTTCAAAAATATATACACACATGCATATTACGGTG [CACACA_site775] | 8.98 ± 0.43
CCACTAATTATGTGCACACAAATTAAAGGTCTACAA [CACACA_site4259] | 9.46 ± 0.32
GAAATAATTTTTATTTGTACACACATACATATATAT [XGTACX_site1862] | 9.3 ± 0.55

Sequence | gcPBM binding intensity (ln)
AAATTTTATAAAGGAACACACATTTTTTTTTTTTCT [CACACA_site2368] | 8.5 ± 0.41
TTATTCATTTCGAAAAGTACAAATTCTGTTTATTAT [XGTACX_site6892] | 8.47 ± 0.48
ATAATATTTATAAATTGTACTAATGTTCAATAATTA [XGTACX_site7284] | 8.35 ± 0.51
TTTTGTCGGAAATCGGATAAGAAGAAAAAAAATAAT [GTGCAC_negctrl_site594] | 8.56 ± 0.48
AAAAAAAAAAAATACGTGCACTATGATATATTATAT | 8.88 ± 0.47
AAAAAAAAAAAAAGTACACACATACATATAAATATA [CACACA_site8533] | 9.01 ± 0.36
TTCACTCCATATTATACACACACACTAATGAAAAAA [CACACA_site8991] | 9.35 ± 0.28
AGTGAATATCTAAAATGTACATAAATAAATAAATAA [XGTACX_site8293] | 8.8 ± 0.54
CGTTATATCAAAGGAGTGCATTATGAATACGTTTTA [GTGCAC_site9837] | 8.66 ± 0.37
TTAAAATTTTTCAAAAGTACATAAATAATATATATT [XGTACX_site4694] | 8.23 ± 0.49
AATATATTATATATATGTACATAATGTGTAATACCT [XGTACX_site2845] | 8.93 ± 0.38
TTTTTTTTTGTTAAAGTGCATATATTAAATTTTCCT [GTGCAC_site9677] | 8.43 ± 0.4
GGAAAAAAATATAAAAGTACTTTTTATTTATTTTAT [XGTACX_site7418] | 8.4 ± 0.51
TTTATTTGTTCATGCGTGCACTTGATAACAATGTAC [GTGCAC_site9561] | 8.93 ± 0.4
AAAAAAAATTCATATTGTACTTTTAAATTAAAGAAA [XGTACX_site4521] | 8.07 ± 0.51
AAATTTTTTGTTCAATGTACTTTTTTATTATATTTT [XGTACX_site5298] | 8.76 ± 0.48
GATATATAATATAATACACACATTTTATGAATGTAA [CACACA_site24] | 8.85 ± 0.33
ATTTTTTAAATTTAAACACACATTTTGTATATGTTT [CACACA_site1654] | 8.99 ± 0.44
TCTACTATTATATATTGTACAAATGATACTTATATT [XGTACX_site1819] | 8.82 ± 0.43
AAAAAAAAAAAACATACACACATACATACAGATATA [CACACA_site4681] | 9.32 ± 0.36
TTTCACTACACAAATACACACAAAAATATATGTGCA [CACACA_site2632] | 9.12 ± 0.22
TTCTTTTTGAAACACACACACACAAGAAAATATATA [CACACA_site3110] | 9.65 ± 0.29
TTCTATTTTATATGTGCACACATATACACCCACAAA [CACACA_site1130] | 9.3 ± 0.33

Sequence | gcPBM binding intensity (ln)
TATAATTAAAATTTGTGTACGTATGACAAAACATTT [XGTACX_site7072] | 8.61 ± 0.45
AGATACAAGCACTATAGTACACATACTAAAAATATA [XGTACX_site5849] | 8.98 ± 0.47
TTTCCTTACCCTTTCCTGGTGTAGAAATTATACTCT [TGCATGCA_negctrl_site116] | 8.63 ± 0.52
AAAAAAATAACAAAAGTGCATTTTTATGAGTTATCT | 8.65 ± 0.42
ATATATAATTAATAAAGTACATTAATTATTTCTTTT [XGTACX_site3034] | 8.4 ± 0.51
CATTTACCCTTATTAACACACAAAATAAAATACGCT [CACACA_site7249] | 8.9 ± 0.4
AAATAACAAAAGAAGGTGCTCATAAAAATTCATACA [GTGCAC_site9864] | 8.79 ± 0.5
AACAATAGTAAAAATACACACATTAAACTTCATTTC [CACACA_site2126] | 9.11 ± 0.36
AAAAAAAAAAAAAAAAAAAAAAAAAAAAAAAAAAAA [CACACA_negctrl_site204] | 8.765 ± 0.0071
AAATTATAAAAAAAAAAAAAAAAAAAAAAAAAAAAA [XGTACX_negctrl_site501] | 8.045 ± 0.05
ATACAATGATATATACATATATATATATATATATAT [TGCATGCA_negctrl_site359] | 9.93 ± 0.45
ATATATATATATCACGCACACACGAATTTTAAATAT [CACACA_site3131] | 9.46 ± 0.27
AAAAAAATTACGCAAGTGCATATAATTTAACAAAAA | 8.65 ± 0.41
AATGGTAATCCACATACACACACACCGACACATATA [CACACA_site8876] | 9.91 ± 0.38
ATCGCGAAGTAGCATTCACACACAGCAAAATATATA [CACACA_site9162] | 9.47 ± 0.43
AACATTTATATAAAAGAACACACATATAAAATATTA [CACACA_site9199] | 8.87 ± 0.4
ATATATACAACTAAAGAACACACATCATTGTTCATT [CACACA_site9224] | 8.95 ± 0.4
AAACAATTTTTTAAAAGTACTTGAAAATTGTGAAAT [XGTACX_site2461] | 8.59 ± 0.54
ACAAAATTTTTAAGAACACACAAAAATGTACTATCG [CACACA_site2550] | 8.69 ± 0.45
GAAAGGACAAGAATAGTGCACATGCAATGTTATTTT [GTGCAC_site9985] | 9.21 ± 0.56
AATCATGCTCCGGAAAGTACATAAATAAATAAATAA [XGTACX_site1690] | 8.85 ± 0.56
AAAAAAAAAAAACATACACACATACATACATATATA [CACACA_site8222] | 9.26 ± 0.35
CACATACACATACAAACACACATTATGTATATATAT [CACACA_site1599] | 9.31 ± 0.42

Sequence | gcPBM binding intensity (ln)
CATATATAAATATGTACACACATATGTATGATCTCA [CACACA_site3868] | 9.07 ± 0.38
TTATTTATAAGTAATATTATATATTCTTTTAATACA [CACACA_negctrl_site471] | 8.32 ± 0.48
TTCTATATATTTGGAAGTACATTATATTTATTTTTT [XGTACX_site3172] | 8.51 ± 0.64
TAAAATTTTTGTTTTTGTACGAAACATCAATTTTAC [XGTACX_site4963] | 8.68 ± 0.5
AATGGTATAAACAATACACACATAATATAAATATTG [CACACA_site6878] | 9.03 ± 0.4
TTATATATAAATGTGTGTACTTATAAAATAATCATT [XGTACX_site5370] | 8.78 ± 0.43
AGATCTATTATTTTTTGTACTTATATATAAACTTAA [XGTACX_site1737] | 8.64 ± 0.44
ATAGGCAAAAAGTGTACACATTCATTTATATAAATA [CACACA_site4480] | 8.93 ± 0.44
ATACATATATGTGTGTGTACATAAATGTATATATTT [XGTACX_site6242] | 9.53 ± 0.38
GCATGGAACCATATATGTACATATATAAATAAATAA [XGTACX_site4996] | 8.91 ± 0.5
AACTTTATTCCTAATTGTACACATATATATATATAT [XGTACX_site6823] | 9.2 ± 0.3
GTATCTTTCAAAATATGTACATATATATATGTGTGT [XGTACX_site3512] | 9.31 ± 0.32
ATTATACATATGTATGCACACATACATACACATATA [CACACA_site9155] | 9.22 ± 0.31
AATAGTAAAAGATATACACACACCAAAAAATAGAAT [CACACA_site2289] | 9.86 ± 0.51
TAATTTAAGAAAAAATGTACACAAATATAATAATAG [XGTACX_site8317] | 8.79 ± 0.56
ATATATATATGTTTATGTACTTATAATAATATAACT [XGTACX_site4828] | 8.71 ± 0.36
AAAAAAAATATCTATGCATGTAATATTATGATATTG [TGCATGCA_site546] | 8.63 ± 0.26
TAACATTAAAATAAAAGTACTTAATAATATTAAGTA [XGTACX_site5920] | 8.54 ± 0.43
TTAATAATAAATGAAAGTACATATAAAAAAAAAAAA [XGTACX_site717] | 8.66 ± 0.33
CGTATAACATATGACACACACACATACATACACAAA [CACACA_site1803] | 9.84 ± 0.28
